Out of some 150,000 compounds screened, about 540 (0.36%) showed an effect of 50% or more. The list shows a part of the results.
tested on: Plasmodium falciparum; test: Primary screen in NF54 nanoGlo assay, in single point, at 2uM, 72h; a lower Z score goes with more inhibition; type: functional, Erythrocyte; settings: timepoint 72 hour

Point of comparison: `Cc1ccc(-c2c(C)noc2C)cc1S(=O)(=O)N1CCCc2ccccc21`, “% Inhibition” value -3%. Against it:
- Cc1occc1C(=O)N[C@@H](C)Cn1cccn1 — higher, 4%
- O=C(NS(=O)(=O)c1cccc2nsnc12)C1CCC2CC2C1 (stereo unspecified) — lower, -10%
- O=C(CC1CCCC1)N[C@H]1CC(=O)N(Cc2cccc(F)c2)C1 — lower, -5%
- c1ccc(-c2nnc(COc3ccc4oc5ccccc5c4c3)o2)cc1 — lower, -7%
- CCCCNC(=O)c1cc(-c2ccccc2)n2nc(-c3ccccc3)cc2n1 — higher, -1%
- Cc1cc(C)nc(-c2ccc(C(=O)NCCN3CCCC[C@@H]3CO)cc2)n1 — lower, -8%
- O=S(=O)(Nc1cc(S(=O)(=O)N2CCOCC2)ccc1N1CCCC1)c1ccc(Cl)c(C(F)(F)F)c1 — the same, -3%
- CNc1nc(N2CCCn3nc(CN(C)Cc4ccon4)cc3C2)ncc1F — higher, -2%
- COc1ccc2nc(C)c(C(=O)N3CC[C@H]3C(F)(F)F)n2n1 — lower, -15%
- C[C@H](Nc1nc(N2CCCCC2)nc2ccccc12)c1ccccc1 — higher, 40%
- OC[C@@H]1O[C@H](CN(Cc2ccc(F)cc2)Cc2ccc(F)cc2)[C@H](N2CCCC2)[C@@H]1O — higher, 17%
- O=C(COCC(F)(F)F)N1C[C@H]2CCCC[C@H]21 — higher, 0%
- COCCn1nc([C@H]2CCCN(C(=O)C3(c4ccccc4)CCOCC3)C2)n(C2CC2)c1=O — higher, 5%
- C#CC[C@H](C)NCc1csc(C(C)(C)C)n1 — lower, -11%
- NC(=O)CN(CCc1nc2ccccc2c(=O)[nH]1)C1CCCC1 — lower, -7%
- CC(C)c1ccc(C#N)c(NC[C@@H](CO)C(C)C)n1 — the same, -3%
- CCCNC(=O)NC(=O)COc1cc(Cl)ccc1C(N)=O — lower, -21%
- COC(=O)NCC(=O)NCc1cc2c(nc1OC)CN(C1CCCC1)C2=O — lower, -11%
- Cc1nc2ccccn2c1-c1nnc(N2CCC[C@H]2C(C)C)n1C — lower, -6%
- CC(C)(c1nc(-c2c[nH]c3ccccc23)n[nH]1)N1CCOCC1 — lower, -7%
- Cc1cc(=O)c(C(=O)Nc2ccccc2Cn2ccnc2C)cn1C — lower, -12%
- CN1CCN(Cc2cc3ccc(F)cc3nc2-c2cccc(Cl)c2)CC1 — lower, -9%

Point of comparison: `C#CC[C@H](C)NCc1csc(C(C)(C)C)n1`, Z score 1.66. Against it:
- Cc1occc1C(=O)N[C@@H](C)Cn1cccn1 — lower, -0.43
- O=C(NS(=O)(=O)c1cccc2nsnc12)C1CCC2CC2C1 (stereo unspecified) — lower, 1.49
- O=C(CC1CCCC1)N[C@H]1CC(=O)N(Cc2cccc(F)c2)C1 — lower, 0.46
- c1ccc(-c2nnc(COc3ccc4oc5ccccc5c4c3)o2)cc1 — lower, 0.93
- CCCCNC(=O)c1cc(-c2ccccc2)n2nc(-c3ccccc3)cc2n1 — lower, 0.22
- Cc1cc(C)nc(-c2ccc(C(=O)NCCN3CCCC[C@@H]3CO)cc2)n1 — lower, 1.16
- O=S(=O)(Nc1cc(S(=O)(=O)N2CCOCC2)ccc1N1CCCC1)c1ccc(Cl)c(C(F)(F)F)c1 — lower, 0.29
- CNc1nc(N2CCCn3nc(CN(C)Cc4ccon4)cc3C2)ncc1F — lower, 0.26
- COc1ccc2nc(C)c(C(=O)N3CC[C@H]3C(F)(F)F)n2n1 — higher, 1.88
- C[C@H](Nc1nc(N2CCCCC2)nc2ccccc12)c1ccccc1 — lower, -5.78
- OC[C@@H]1O[C@H](CN(Cc2ccc(F)cc2)Cc2ccc(F)cc2)[C@H](N2CCCC2)[C@@H]1O — lower, -2.59
- O=C(COCC(F)(F)F)N1C[C@H]2CCCC[C@H]21 — lower, 0.04
- Cc1ccc(-c2c(C)noc2C)cc1S(=O)(=O)N1CCCc2ccccc21 — lower, 0.41
- COCCn1nc([C@H]2CCCN(C(=O)C3(c4ccccc4)CCOCC3)C2)n(C2CC2)c1=O — lower, -0.55
- NC(=O)CN(CCc1nc2ccccc2c(=O)[nH]1)C1CCCC1 — lower, 1.27
- CC(C)c1ccc(C#N)c(NC[C@@H](CO)C(C)C)n1 — lower, 0.37
- CCCNC(=O)NC(=O)COc1cc(Cl)ccc1C(N)=O — higher, 1.9
- COC(=O)NCC(=O)NCc1cc2c(nc1OC)CN(C1CCCC1)C2=O — lower, 1.09
- Cc1nc2ccccn2c1-c1nnc(N2CCC[C@H]2C(C)C)n1C — lower, 1.16
- CC(C)(c1nc(-c2c[nH]c3ccccc23)n[nH]1)N1CCOCC1 — lower, 0.66
- Cc1cc(=O)c(C(=O)Nc2ccccc2Cn2ccnc2C)cn1C — lower, 1.33
- CN1CCN(Cc2cc3ccc(F)cc3nc2-c2cccc(Cl)c2)CC1 — lower, 1
